The record followed here is the supplement of paper PMC10126150.

Sequences with one replicate were seen in a single cluster, so their values are uncertain.

The series concerns ATP. As to the kind of experiment: switch fluorescence ratio, 500 uM ATP over buffer (Cy3 cluster intensity, sum of 5 cycles each) (fold (ratio)); higher = stronger signal-on switching upon ATP binding; sequences stand for … in TCGTCGGCAGCGTCAGATGTGTATAAGAGACAGTTTTTTTTTTTTTTTTTTTTTTTTT…TC. To be noted: aptamer strand: ATP DNA aptamer (quencher-CACCTGGGGGAGTATTGCGGAGGAAGG + anchor), 100 nM annealed; ATP concentration: 500 uM; one replicate. The method, boiled down: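 Values give the fluorescence ratio for each switch-domain sequence, averaged from per-cluster ratios of summed target-cycle to summed buffer-cycle Cy3 intensity. The Cy3-labelled switching-strand clusters sat on a modified Illumina MiSeq flow-cell, were annealed to 100 nM quencher-labelled ATP aptamer, and were imaged in selection buffer, then after 15 min with 500 uM ATP at 22 °C. Five cycles ran with NaOH stripping and re-annealing between them, and clusters outside 100-1000 RFU were excluded.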
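Further: ATP exposure 15 min at 22 °C before imaging.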

As for ATGACATTAA, the switch fluorescence ratio stood at 1.03.

As to AGAGCAGAAC, the switch fluorescence ratio is 1.56.

As to AGTTTCATAA, the switch fluorescence ratio is 1.03.

With TCAGCTTGTG, the switch fluorescence ratio is 1.02.

TCTGCACACC: the switch fluorescence ratio was determined as 1.4.

For ATCTCAAAAT, the switch fluorescence ratio is 1.08.

ATCTGGTGCC: the switch fluorescence ratio worked out at 1.03.

As to CACTCCGGGC, the switch fluorescence ratio worked out at 2.24.

On to GTCGTCTACA, for which the switch fluorescence ratio came to 0.98.

As for GTGCAGCCGT, the switch fluorescence ratio stood at 1.03.

AAACGTGTT: the switch fluorescence ratio turned out to be 1.04.

With GCGGCTACAT, the switch fluorescence ratio stood at 0.986.

Take TCGGGTAATG: the switch fluorescence ratio is 0.998.

As for CCGTGTTGGC, the switch fluorescence ratio was 1.04.

As for TCGTGTGTAT, the switch fluorescence ratio worked out at 1.

With AGGAAGAGAC, the switch fluorescence ratio was 1.01.

Turning to CGACGGTTA, the switch fluorescence ratio was 1.16.

As for GAGGCGTGTA, the switch fluorescence ratio is 1.01.

As for TGTGTGTGC, the switch fluorescence ratio was 1.02.

With ATAGGACTGC, the switch fluorescence ratio was found to be 1.07.

On to GTCGGTCCAC, for which the switch fluorescence ratio was 0.976.

On to CCAATCATTG, for which the switch fluorescence ratio turned out to be 1.

For TTTGGGGACC, the switch fluorescence ratio was 0.991.

As for CGTATTAACG, the switch fluorescence ratio turned out to be 1.03.

For the sequence TGCCCCGGCT, the switch fluorescence ratio was 0.994.

Regarding CTTTTGAGTA, the switch fluorescence ratio turned out to be 0.988.

As to CTGTAGTAGT, the switch fluorescence ratio was found to be 1.29.

On to AGCTGAGTCG, for which the switch fluorescence ratio turned out to be 0.933.

Take CAGAGTTGTT: the switch fluorescence ratio stood at 0.952.

As for TCGTTGCCTC, the switch fluorescence ratio came out at 1.03.

As to TACAGGGCGG, the switch fluorescence ratio was 1.03.

Turning to ACCTGCTTGG, the switch fluorescence ratio is 1.02.

For CTGATGGCGG, the switch fluorescence ratio stood at 1.04.

Turning to ACATGCATTG, the switch fluorescence ratio is 1.03.

In the case of GTGTAAAAGA, the switch fluorescence ratio worked out at 0.972.

In the case of GATCTTCTAT, the switch fluorescence ratio amounted to 0.984.

For AACGGGCCTG, the switch fluorescence ratio is 1.01.

Turning to CGGCGGTG, the switch fluorescence ratio came to 1.

With GGTCGAGTCT, the switch fluorescence ratio turned out to be 0.977.

For TTGTTTGAGA, the switch fluorescence ratio was determined as 0.97.

With GCCTCATAGA, the switch fluorescence ratio is 1.03.

For the sequence CTGGCGTCGG, the switch fluorescence ratio is 1.01.

On to CTCAGGGTTG, for which the switch fluorescence ratio was found to be 1.01.

Turning to AGACGTCTAC, the switch fluorescence ratio was found to be 0.992.

Take TTGCAAAAG: the switch fluorescence ratio stood at 1.05.

For the sequence CCGAAAACCC, the switch fluorescence ratio is 1.12.

In the case of TGCGGGGAAG, the switch fluorescence ratio came to 1.02.

ATGAACAGCT: the switch fluorescence ratio was determined as 1.02.

Consider ACTTACGAC, for which the switch fluorescence ratio stood at 1.45.

For the sequence TATAGATACG, the switch fluorescence ratio worked out at 1.05.

With TTGACGAGCT, the switch fluorescence ratio amounted to 1.09.

Take TCGGCGCTCG: the switch fluorescence ratio is 0.965.

In the case of GGTGATTTTT, the switch fluorescence ratio stood at 1.03.

Regarding GGATTCTAAG, the switch fluorescence ratio was 0.98.

As for GATCCCAGCA, the switch fluorescence ratio came to 1.

Consider CGAAGTTGCA, for which the switch fluorescence ratio came out at 0.982.

For the sequence TAGGTATAC, the switch fluorescence ratio was found to be 1.07.

Take CACGATTACG: the switch fluorescence ratio was 1.03.

In the case of CTCAGAGATC, the switch fluorescence ratio was 1.01.

On to AGTCTCCCGG, for which the switch fluorescence ratio turned out to be 1.45.

Take TAGGACCACG: the switch fluorescence ratio worked out at 1.03.

TAGGGAGTTG: the switch fluorescence ratio was 0.983.

In the case of GGGGAGTGGC, the switch fluorescence ratio turned out to be 1.01.

As for AGTAGGATGG, the switch fluorescence ratio came to 0.991.

Take GGTTAGTGGC: the switch fluorescence ratio is 0.967.

GTCCGTGCTG: the switch fluorescence ratio is 1.

On to CGAACAGTTG, for which the switch fluorescence ratio came out at 0.99.

As for CCCTGGGGTG, the switch fluorescence ratio amounted to 3.26.

With CCTTCGTATC, the switch fluorescence ratio was determined as 4.12.

Take CTCTAGGCTG: the switch fluorescence ratio is 1.06.

As to GTTACCTACG, the switch fluorescence ratio came out at 1.59.

CGAATTGTGT: the switch fluorescence ratio was found to be 0.99.

As to AGCATTGCGT, the switch fluorescence ratio amounted to 1.

Take GGGCATAG: the switch fluorescence ratio was found to be 1.25.

On to TATTTCAAGG, for which the switch fluorescence ratio was 1.03.

Consider ATGGTACATC, for which the switch fluorescence ratio worked out at 1.02.

For TACTGTACT, the switch fluorescence ratio amounted to 1.6.

Turning to CATAGTCACT, the switch fluorescence ratio turned out to be 1.04.

TTATAAACAC: the switch fluorescence ratio was determined as 1.09.

As for CTAAACATTG, the switch fluorescence ratio was found to be 1.

As for TGCCACCCGG, the switch fluorescence ratio came to 1.02.

Regarding TATCGTCACG, the switch fluorescence ratio is 0.968.

On to TTCTCGAAT, for which the switch fluorescence ratio amounted to 1.01.

As for ATATCTGCGG, the switch fluorescence ratio turned out to be 1.03.

For the sequence TCATAAATAT, the switch fluorescence ratio is 0.934.

Take AGACTGGGTC: the switch fluorescence ratio worked out at 1.01.

On to AGTGGCCCGG, for which the switch fluorescence ratio came to 0.98.

For ATATATTAG, the switch fluorescence ratio came to 1.01.

In the case of CCGGTACAGA, the switch fluorescence ratio was 1.06.

With TTGTAAAACA, the switch fluorescence ratio amounted to 0.941.

Consider ATGGTCTGG, for which the switch fluorescence ratio is 0.989.

Take AGGCCTTAAC: the switch fluorescence ratio amounted to 1.02.

Take TCCGCGGACA: the switch fluorescence ratio worked out at 1.06.

For the sequence TATGTTAATT, the switch fluorescence ratio amounted to 1.06.

Consider GGTGGACACG, for which the switch fluorescence ratio was 1.11.

As for GTAGGCACGC, the switch fluorescence ratio worked out at 0.96.

In the case of GGCTACTGTA, the switch fluorescence ratio was 1.16.

For GTGTTCGCTC, the switch fluorescence ratio was determined as 1.05.

Turning to ATCACGCCCT, the switch fluorescence ratio was 1.12.

On to AGTGTGATC, for which the switch fluorescence ratio is 1.01.

As to AAAGCCTCCG, the switch fluorescence ratio came out at 2.53.

On to TCCTGTGGTT, for which the switch fluorescence ratio was 1.17.

As for AAGTGCATTG, the switch fluorescence ratio was 1.01.

Regarding GGGCAGACCC, the switch fluorescence ratio came out at 0.955.

Take GAACGGG: the switch fluorescence ratio came out at 0.96.

CCCATTGGCC: the switch fluorescence ratio worked out at 1.05.

In the case of CGGATAGGTA, the switch fluorescence ratio was 0.982.

Turning to GCAAGCCAGC, the switch fluorescence ratio was 1.02.

As for GAACGCAGCG, the switch fluorescence ratio was found to be 0.997.

TAGCGCGCGA: the switch fluorescence ratio amounted to 0.956.

On to GTACCATCGA, for which the switch fluorescence ratio came out at 0.983.

Regarding AGGCGGTCGT, the switch fluorescence ratio is 0.932.

With AGTCGCATA, the switch fluorescence ratio came to 1.04.

For the sequence GTAAGAGG, the switch fluorescence ratio amounted to 0.982.
